The test system of one test is MALME-3M melanoma. Kind of test: NCI-60 one-dose screen, 48 h (100 = growth as untreated, 0 = no growth, -100 = all killed). The following applies: 25 µM.
The next test deals with RXF 393 renal. Described as above. The note with it: 0.25 µM.

The values that follow come from PubChem BioAssay (NCI).

Some structures have more than one record in an assay (separate samples or runs), and their calls can disagree.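 How to read the values: 0–100, growth inhibition (40 = 60% inhibited); 0, no net growth; -100 to 0, cell death (-40 = 40% of starting cells died; -100 = all dead).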 Some entries of the source have several records that differ or are many. They are shown here; other results are not. The calls were made as follows: active = growth percent below 10; inactive = the rest. An entry can have further records. The screen tested this drug many times, at the concentration stated with the values; each value is one run. Marks such as (2×) say how often a value occurs here.

As to `COc1cccc2c1C(=O)c1c(O)c3c(c(O)c1C2=O)C[C@@](O)(C(=O)CO)C[C@@H]3OC1CC(N)C(O)C(C)O1` (stereo not given in full), the growth result with MALME-3M melanoma (runs of 1995) was “active: -89.4, -98.7, -92.1, -77.5, -96.1, -56.3, -93.7, -19, -67.8, -90.1, -99.3, -95.7, -50.7, -100 (2×), -96.3, -86.6, -68, -98.9, -98.2, -41, -94.7, -95.9, -69.5, -74.9, -72.3, -82, -54.1, -90, -91.2, -66, -88.1, -85.4, -86.4, -82.2, -71.7, -98.4, -61, -74.7, -76.2%”; in the test with MALME-3M melanoma (runs of 1996) it was “active: -78.9, -75.9, -86.2, -69.6, -51.7, -92.5, -41.4, -78.3, -81.3, -55.2, -46.5, -92.4, -69.3, -91.2 (2×), -58.5, -76.5 (2×), -1.35, -58.6, -81, -95.3, -68.5, -96.3, -76.4, -83.4, -83.5, -70.9, -63.9, -90.3, -98.1, -65, -52.2, -85.2, 0.658, -97.7, -96.1, -77, -79.7% and inactive: 79.7%”; in the test with MALME-3M melanoma (runs of 1997) it was “active: -54.1, -81.1, -93.7 (2×), -93.1, -91.5, -58.2, -59.1, -94.5, -44, -84.2, -80.6, -92.6, -91.1, -64.1, -78.6, -97.7, -69.7, -30.6, -83.6, -89.7, -92.5, -64.5, -94, -88.2, -87.7, -94.4, -69.6, -43.7, -96.9 (2×), -100, -95.9, -94.9, -90%”; in the test with MALME-3M melanoma (runs of 1998), “active: -43.8, -97.7 (2×), -94.3, -53, -96, -91.6, -93.4, -81.3, -65.2, -28.9, -61.2, -70.6, -80.5, -63.8, -93.7, -61.3%”; with MALME-3M melanoma (runs of 1999) it was “active: -99.2, -89.8, -75.6, -98.6, -84.1, -100, -85.9, -71.4%”; with MALME-3M melanoma (runs of 2000) it was “active: -10.7%, -88.7%”. Moreover, the growth result in the test on RXF 393 renal (runs of 2006) was “inactive: 10.9%, 37.3%”; with RXF 393 renal (runs of 2007), “inactive: 45.8, 38.4, 53.8, 39.8, 56.2, 10.4, 31, 47.7, 42.3, 12.5, 42.6, 52.9, 72.1, 20.8, 37.9, 35.5, 80.2, 90.2, 50.7, 33.2, 78.1, 41.5, 70, 59.8, 78.4, 35.7, 40.3, 14.8, 77.5, 56.1, 55.9% and active: -21.5%”; with RXF 393 renal (runs of 2008) it was “inactive: 61.2, 38.6, 16.5, 48.6, 54.4 (2×), 45.6, 66, 43, 37.8, 50.3, 33.2 (2×), 57.2, 63.3, 32.7, 19.2, 19.4, 26.6, 22.7, 42.7, 63.1, 22.1, 20.4 (2×), 21.8, 44, 38.4, 34.2, 40.2, 31.5, 55.5, 70.6, 50.4, 51.6, 63.9, 52.1, 30.6, 48.1, 64% and active: -16, -36.6, -26, -5.51, -22.6, -12.1, 7.97, -3.91, -2.04, 8.74, 8.24, 9.07%”; with RXF 393 renal (runs of 2009), “inactive: 41.9, 55.3 (2×), 85.1, 43.6 (2×), 36.1, 81.5, 204, 108, 79.9, 64.1, 53.4, 79.3, 67.2, 63.3, 44.3, 54.1, 61.8, 58.9, 50.7, 61.1, 54.8, 73.1, 59.1, 55.2 (2×), 46.7, 64.2, 49.1, 54.5, 62.2, 69 (2×), 73.9, 46.3, 58.4, 28.7, 31.9, 35.4, 19.2, 67.8, 69.6, 37.2, 50.4, 45.2, 49 (2×), 55.5, 31.1, 48.3, 41.2, 26.8, 45.4, 31.6, 25.4, 27.9, 48.7, 66, 45.7, 56.9, 29.5, 59.8, 14.4, 53.2, 43.7, 48.6, 14.6, 19.8% and active: 6.35%, -5.95%”; with RXF 393 renal (runs of 2010), “inactive: 66.9, 64.4, 71.6, 41.6, 72.9, 60.7, 59.5, 74.1 (2×), 54.3 (2×), 37.9, 57.2, 57.5 (2×), 40.3, 42.4, 41.5, 51.5, 49.5, 68.8, 70, 29, 53.4, 57.7, 28.6, 59.2, 43.3, 38.2, 56.8, 60.9, 69.9, 78.9, 55, 58.1, 66, 48.3, 66.7, 56.3, 65.5, 62.6, 65, 77.4, 65.6, 62.4, 71.5, 69.2, 71, 65.2, 54.1, 51.7, 55.3, 55.7, 57.6% and active: -12.3%”; in the test on RXF 393 renal (runs of 2011), “inactive: 63.7, 54.2 (2×), 48.3, 62.6, 48.2, 39.1, 47.8 (2×), 58.8, 44.5, 58.9, 75.6, 56, 67.6, 75.3, 68.9, 64.9, 58.4, 61.1, 64.7, 59.5, 64.6, 73.9, 63.8, 79.5, 59, 66.5, 29.6, 58.5, 64.3, 57.9, 55.4, 48, 46.2, 49.3, 43.4, 61.8, 59.1, 57.4, 58.1, 51.3, 44.7, 52.5, 67.4, 55.9, 35.8, 58.3, 46.9, 62.7, 57, 65.8, 42.7, 51.8%”. The growth result was “inactive: 56.2, 40.8, 35.8, 52.5, 64.9 (2×), 64.8 (2×), 57.5, 71.3, 53.4, 32.9, 54.9, 64, 46.4, 25.2, 33.8 (2×), 44.9, 42.8, 50.2 (2×), 54.7, 50.6, 35, 46.6, 62.2, 55.1, 66.1, 60.9 (2×), 50.5, 59.8, 61, 60.8, 75.2, 67.2, 63.7, 59.2, 31, 47.7, 63.8, 49.2, 43.3, 55.4, 35.6, 71.7, 72.7, 77.1, 82.7 (2×), 69, 83.6, 95.1, 73.7, 86.3, 89, 84.3, 80.3, 88, 48.3, 52.4, 49.3, 40.7, 57.4, 67, 59.4, 59.3, 56.7, 67.1, 59, 65.3%” in the test on RXF 393 renal (runs of 2012); “inactive: 53.9, 60.5, 56.8, 50.3 (2×), 58.8, 60.4, 68.6, 61.4, 59.5 (2×), 59.1, 58, 63.5, 51.3, 67.2, 62.9, 74.9, 77.2, 69.7, 76.9 (2×), 72.9, 75.3, 65.5, 69.5 (2×), 76, 72, 71, 65.1, 72.3, 73, 66.1, 67.8, 63.3, 51.5, 64.6, 57.9, 57, 67.3, 62.6, 52.5, 73.8, 72.5, 74, 77.6, 79.1, 76.7, 78.3, 78.9, 80.7, 74.3, 76.6, 84.2, 78.4, 72.8, 68.2, 77.7, 60.9, 50.2, 46.6, 64.4, 45.7, 61.7, 65.6%” in the test with RXF 393 renal (runs of 2013); “inactive: 66.4, 65.2 (2×), 66.8, 54.1 (2×), 38.9, 40.9, 47.6, 20.8, 42.6, 45.6 (2×), 76.2, 63.4 (2×), 72.6, 68.8, 73.1, 63.9, 78.4, 82.9, 80.3, 61.3, 71.6, 72.1, 68.1, 43.6, 61.7, 65.8, 44.2, 51.4, 43.2 (2×), 41.4, 35.7, 53.9 (2×), 43.8, 49.4, 45.9, 37.9, 43.5, 46.7 (2×), 50.7, 63 (2×), 61, 36, 69.9, 55.1, 38.2, 61.9 (2×), 45.7 (2×), 55, 41.2, 47.1, 49.7, 59, 71.4, 70.5, 75.3, 70, 63.1, 71.7, 79.4, 72.3, 75.1, 76.5, 67.3, 76.9, 69.4%” with RXF 393 renal (runs of 2014).
